According to the supplement of paper PMC12632987:
Over roughly 4,500 sequences, “median log2 fold change of GCK-ALFA target abundance (FLAG IP / Myc IP barcode read proportion)” has its median near 0.078; the lowest 2% begin near -0.6. This is one part of the list.

B1: GBRAP_57_6467 (protein)
chain: MSALERVEAHAARALALLEAGAPREEVLAEVRAALEELSRETLLDIALILDPSTSEDASREELIARLLEIFARALEEEGPEAARRMLDLMVGEAEMEASE
B2: GBRAP_128_3232 (protein)
chain: MDPELRAKVDALIDTIINGDVAETRAATAELVALMGTVSLEEAEEIAERVIKALEKLTVEKLEALADTIRANRGTLDPEKANLALEVEIEALNLAEEKEE
B3: GBRAP_78_6594 (protein)
chain: EVEELLDKAIEHLDEAARLARKLPEDARNELLDEIVEAMSYILESIEEGFDLKNLEEAKKYAEKALKLVEALDHPEAPEIAKELKKAIELLEKAIKLVKK
B4: GBRAP_52_6257 (protein)
chain: MRERLRAIAERIFELVKAGRLEEARALARELAETFSEEELELFIEEAAELALESSKEEIEDLERMAELVAEELERAGRPEEIVSLFEARVYGAIYQTSQR
B5: GBRAP_14_3785 (protein)
chain: MEEILKKVKEEFEELEEILTAIAPEKAEEIKKLIEKAEKELIEKIKKTGDPVAAAKEVFAKLEKEVAALLADADPETRALALAAVRTTAANLIEEIEELL
B6: GBRAP_35_5580 (protein)
chain: NDEEIILETMRDFAEAAIEALKGDDLEEAISITEAFVRAAELAIEDLKNNLEALEEIEKLLEEVIKAVKKYASDNPKMQEILKRLEELAKRAKELAKKIK
B7: GBRAP_184_5189 (protein)
chain: MVEEYTIKVKDVAEAKAKIAAIAAAVKGKKATLNIIVEAEEITVEIARTIMEGLGAIKAAGNATAITVELVGKMSEEVIDTAVELGKAAGIRVVLAIDEE
B8: GBRAP_11_2869 (protein)
chain: KKEELKKIAELAEELAEVLEELLEEGVDNEELREKAEELLKELLELTKKYGDEASKKLAEIAYELWKEALEDPENAEEYVKELLATVRVLEGDYLLELEE

Each binder was assayed against GABARAP, O95166 (assay: median log2 fold change of GCK-ALFA target abundance (FLAG IP / Myc IP barcode read proportion) (log2 ratio); each designed protein is fused to an ALFA-tag nanobody in HEK293 cells to bring the named protein to FLAG-tagged glucokinase (GCK); Myc marks an untargeted standard; higher = target protein stabilised (more abundant)). Details: target protein: 3xFLAG-MCP-GCK-ALFA reporter; HEK293 landing pad (RPLP).
How it was run: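 HEK293 landing-pad cells received a recombined binder library fused to the ALFA nanobody and were induced with 2 μg mL^−1 doxycycline, then transfected with a plasmid encoding a FLAG-tagged target and a Myc-tagged standard. Lysates were collected after 48 h for anti-FLAG and anti-Myc immunoprecipitation, and the circular RNA barcodes were reverse transcribed, amplified and sequenced. Target abundance for each binder is the median log2 ratio of FLAG to Myc barcode read proportions. Barcodes had to reach a proportion of at least 10^−7 in both replicates, each binder needed at least 3 barcodes per replicate, a pseudocount of 10^−6 was applied, and the two replicates were pooled.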

Chain of GABARAP, O95166 (O95166 whole entry, the tested form may be a part): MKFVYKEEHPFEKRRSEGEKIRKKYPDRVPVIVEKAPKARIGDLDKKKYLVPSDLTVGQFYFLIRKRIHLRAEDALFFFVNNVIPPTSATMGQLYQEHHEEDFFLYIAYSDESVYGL

Binder	median log2 fold change
B1	0.175
B2	0.254
B3	-0.0374
B4	0.101
B5	0.154
B6	0.103
B7	0.256
B8	0.113
